# Results from the supplement of paper PMC8728848.
# The list shows a part of the results.
# B1: PX14367A-bth-493-35-493 (Bacteroides thetaiotaomicron) (protein)
# chain: VSSDQVAVAGNAERLFNGAWYNLFEYGTTYANIGYRALQCQDDMMASDVVSRPKYGFNSSYQFNDVAIPSDGRTSFAWYLIYKTIDNCNTAISIKGDSEELRQAQGQALALRAFCYLHLVQHYQFTYLKDKDAPCVPIYTEPTTSGTKPKGKSTVAQVYQQIFDDLNLAQDYLTNYVRKGDGQKFKPNTDVVNGLMARAYLLTGQWGEAAKAAEAARKGYSLMTTTAEYEGFNNISNKEWIWGSPQTLSQSDASYNFYYLDATYVGAYSSFMADPHLMDTFVKGDIRLPLFQWMREGYLGYKKFHMRSDDTADLVLMRSAEMYLIEAEAKVRDGVALDQAVAPLNTLRTARGVGNYDVTGKTKEQVIDEILMERRRELWGEGFGITDVLRNQKAVERMALSEDMQKTEVDCWQEGGSFAKRNPLGHWFLNFPDGKAFSANSSYYLYAIPEKEINANPNL
# Key:
# Experiment in all cases: glycan array binding signal (z-score within array); higher = stronger binding
# Conditions in all cases: glycan notation: IUPAC condensed, linker removed
# [1] = target: Gal(b1-3)GlcNAc(b1-3)Gal(b1-4)GlcNAc(b1-2)[Gal(b1-3)GlcNAc(b1-3)Gal(b1-4)GlcNAc(b1-6)]Man(a1-6)[Gal(b1-3)GlcNAc(b1-3)Gal(b1-4)GlcNAc(b1-2)Man(a1-3)]Man(b1-4)GlcNAc(b1-4)[Fuc(a1-6)]GlcNAc
# Method in brief: (§1)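 Negative Z-scores can be read as non-binding. The Z-score is calculated within each array and then averaged across arrays of one protein sequence at different concentrations or buffers and across linkers. Arrays, 3228 in all, were curated from the Consortium for Functional Glycomics database and kept only where the protein sequence was available.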
# [2] = target: Gal(b1-3)GlcNAc(b1-3)Gal(b1-4)GlcNAc(b1-3)Gal(b1-4)GlcNAc(b1-2)[Gal(b1-3)GlcNAc(b1-3)Gal(b1-4)GlcNAc(b1-3)Gal(b1-4)GlcNAc(b1-6)]Man(a1-6)[Gal(b1-3)GlcNAc(b1-3)Gal(b1-4)GlcNAc(b1-3)Gal(b1-4)GlcNAc(b1-2)Man(a1-3)]Man(b1-4)GlcNAc(b1-4)[Fuc(a1-6)]GlcNAc
# Method in brief: as §1
# [3] = target: Gal(b1-3)GlcNAc(b1-3)Gal(b1-4)GlcNAc(b1-6)[Gal(b1-3)GlcNAc(b1-3)]Gal(b1-4)Glc
# Method in brief: as §1
# [4] = target: Gal(b1-3)GlcNAc(b1-3)Gal(b1-4)[Fuc(a1-3)]GlcNAc
# Method in brief: as §1
# [5] = target: Gal(b1-3)GlcNAc(b1-3)Gal(b1-4)[Fuc(a1-3)]GlcNAc(b1-6)[Gal(b1-3)GlcNAc(b1-3)]Gal(b1-4)Glc
# Method in brief: as §1
# [6] = target: Gal(b1-3)GlcNAc(b1-3)GalNAc
# Method in brief: as §1
# [7] = target: Gal(b1-3)GlcNAc(b1-6)Gal(b1-4)GlcNAc
# Method in brief: as §1
# [8] = target: Gal(b1-3)GlcNAc(b1-6)GalNAc
# Method in brief: as §1
# [9] = target: Gal(b1-3)GlcNAc(b1-6)[Gal(b1-3)]GalNAc
# Method in brief: as §1
# Gal(b1-3)GlcNAc6S = target: Gal(b1-3)GlcNAc6S
# Method in brief: as §1
# [10] = target: Gal(b1-3)[Fuc(a1-4)]GlcNAc
# Method in brief: as §1
# [11] = target: Gal(b1-3)[Fuc(a1-4)]GlcNAc(b1-2)Man
# Method in brief: as §1
# [12] = target: Gal(b1-3)[Fuc(a1-4)]GlcNAc(b1-2)Man(a1-3)[Gal(b1-3)[Fuc(a1-4)]GlcNAc(b1-2)Man(a1-6)]Man(b1-4)GlcNAc(b1-4)[Fuc(a1-6)]GlcNAc
# Method in brief: as §1
# [13] = target: Gal(b1-3)[Fuc(a1-4)]GlcNAc(b1-3)Gal(b1-3)[Fuc(a1-4)]GlcNAc
# Method in brief: as §1
# [14] = target: Gal(b1-3)[Fuc(a1-4)]GlcNAc(b1-3)Gal(b1-4)[Fuc(a1-3)]GlcNAc
# Method in brief: as §1
# [15] = target: Gal(b1-3)[Fuc(a1-4)]GlcNAc(b1-6)GalNAc
# Method in brief: as §1
# [16] = target: Gal(b1-3)[GlcNAc(b1-6)]GalNAc
# Method in brief: as §1
# [17] = target: Gal(b1-3)[Neu5Ac(a2-6)]GalNAc
# Method in brief: as §1
# [18] = target: Gal(b1-3)[Neu5Ac(a2-6)]GlcNAc(b1-4)Gal(b1-4)Glc
# Method in brief: as §1
# [19] = target: Gal(b1-3)[Neu5Ac(b2-6)]GalNAc
# Method in brief: as §1
# Gal(b1-4)Gal = target: Gal(b1-4)Gal
# Method in brief: as §1
# [20] = target: Gal(b1-4)GalNAc(a1-3)[Fuc(a1-2)]Gal(b1-4)GlcNAc
# Method in brief: as §1
# [21] = target: Gal(b1-4)GalNAc(b1-3)[Fuc(a1-2)]Gal(b1-4)GlcNAc
# Method in brief: as §1
# Gal(b1-4)Glc = target: Gal(b1-4)Glc
# Method in brief: as §1
# Gal(b1-4)Glc6S = target: Gal(b1-4)Glc6S
# Method in brief: as §1
# Gal(b1-4)GlcNAc = target: Gal(b1-4)GlcNAc
# Method in brief: as §1
# [22] = target: Gal(b1-4)GlcNAc(a1-6)Gal(b1-4)GlcNAc
# Method in brief: as §1
# Gal(b1-4)GlcNAc(b1-2)Man = target: Gal(b1-4)GlcNAc(b1-2)Man
# Method in brief: as §1
# [23] = target: Gal(b1-4)GlcNAc(b1-2)Man(a1-3)Man(b1-4)GlcNAc(b1-4)GlcNAc
# Method in brief: as §1
# [24] = target: Gal(b1-4)GlcNAc(b1-2)Man(a1-3)[Gal(b1-4)GlcNAc(b1-2)Man(a1-6)]Man(b1-4)GlcNAc(b1-4)GlcNAc
# Method in brief: as §1
# [25] = target: Gal(b1-4)GlcNAc(b1-2)Man(a1-3)[Gal(b1-4)GlcNAc(b1-2)Man(a1-6)]Man(b1-4)GlcNAc(b1-4)[Fuc(a1-6)]GlcNAc
# Method in brief: as §1
# [26] = target: Gal(b1-4)GlcNAc(b1-2)Man(a1-3)[Gal(b1-4)GlcNAc(b1-2)Man(a1-6)][Gal(b1-4)GlcNAc(b1-4)]Man(b1-4)GlcNAc(b1-4)[Fuc(a1-6)]GlcNAc
# Method in brief: as §1
# [27] = target: Gal(b1-4)GlcNAc(b1-2)Man(a1-3)[Gal(b1-4)GlcNAc(b1-2)Man(a1-6)][GlcNAc(b1-4)]Man(b1-4)GlcNAc(b1-4)[Fuc(a1-6)]GlcNAc
# Method in brief: as §1
# [28] = target: Gal(b1-4)GlcNAc(b1-2)Man(a1-3)[GlcNAc(b1-2)Man(a1-6)]Man(b1-4)GlcNAc(b1-4)GlcNAc
# Method in brief: as §1
# [29] = target: Gal(b1-4)GlcNAc(b1-2)Man(a1-3)[GlcNAc(b1-4)][Gal(b1-4)GlcNAc(b1-2)Man(a1-6)]Man(b1-4)GlcNAc(b1-4)GlcNAc
# Method in brief: as §1
# [30] = target: Gal(b1-4)GlcNAc(b1-2)Man(a1-3)[Man(a1-6)]Man(b1-4)GlcNAc(b1-4)GlcNAc
# Method in brief: as §1
# [31] = target: Gal(b1-4)GlcNAc(b1-2)Man(a1-6)Man(b1-4)GlcNAc(b1-4)GlcNAc
# Method in brief: as §1
# [32] = target: Gal(b1-4)GlcNAc(b1-2)Man(a1-6)[GlcNAc(b1-2)Man(a1-3)]Man(b1-4)GlcNAc(b1-4)GlcNAc
# Method in brief: as §1
binder,measurement,setting,value
B1,glycan array binding signal (z-score),[1],0.717
same,glycan array binding signal (z-score),[2],1.97
same,glycan array binding signal (z-score),[3],-0.479
same,glycan array binding signal (z-score),[4],-0.574
same,glycan array binding signal (z-score),[5],-0.047
same,glycan array binding signal (z-score),[6],-0.446
same,glycan array binding signal (z-score),[7],-0.759
same,glycan array binding signal (z-score),[8],-0.62
same,glycan array binding signal (z-score),[9],-0.395
same,glycan array binding signal (z-score),Gal(b1-3)GlcNAc6S,-0.62
same,glycan array binding signal (z-score),[10],-0.11
same,glycan array binding signal (z-score),[11],-0.054
same,glycan array binding signal (z-score),[12],0.353
same,glycan array binding signal (z-score),[13],-0.392
same,glycan array binding signal (z-score),[14],-0.233
same,glycan array binding signal (z-score),[15],0.165
same,glycan array binding signal (z-score),[16],-0.406
same,glycan array binding signal (z-score),[17],-0.359
same,glycan array binding signal (z-score),[18],-0.546
same,glycan array binding signal (z-score),[19],-0.594
same,glycan array binding signal (z-score),Gal(b1-4)Gal,-0.238
same,glycan array binding signal (z-score),[20],-0.376
same,glycan array binding signal (z-score),[21],-0.38
same,glycan array binding signal (z-score),Gal(b1-4)Glc,-0.273
same,glycan array binding signal (z-score),Gal(b1-4)Glc6S,-0.087
same,glycan array binding signal (z-score),Gal(b1-4)GlcNAc,-0.381
same,glycan array binding signal (z-score),[22],0.007
same,glycan array binding signal (z-score),Gal(b1-4)GlcNAc(b1-2)Man,-0.268
same,glycan array binding signal (z-score),[23],0.428
same,glycan array binding signal (z-score),[24],1.44
same,glycan array binding signal (z-score),[25],0.125
same,glycan array binding signal (z-score),[26],-0.615
same,glycan array binding signal (z-score),[27],-0.354
same,glycan array binding signal (z-score),[28],0.386
same,glycan array binding signal (z-score),[29],-0.74
same,glycan array binding signal (z-score),[30],3.6
same,glycan array binding signal (z-score),[31],0.224
same,glycan array binding signal (z-score),[32],-0.174
